In ChEMBL document CHEMBL1157539, “Thousands of chemical starting points for antimalarial lead identification” (Nature, 2010) one finds IFI data, which are given here for 24 molecules.

Each structure is given as a SMILES string. “And” between values parts separate entries of the source, which are not always exact repeats. Identical values can stand only once. In all, about 13,000 compounds were measured (“IFI”: median about 4, highest 2% from about 17 on). The list shows a part of the results.

This assay in a line: GSK_TCMDC: Inhibition Frequency Index (IFI). The number of non-kinase HTS assays where a compound showed > 50 % inhibition, expressed as a percentage of the number of such assays in which the compound was tested (-0 is zero). The class given is functional.
The molecule `CCC(C)NCCC(c1ccccc1)c1ccccc1O` (centres undefined) had an IFI of 2.33%. The molecule `CC(=O)Nc1ccc(CN2Cc3ccc(NC(=O)Nc4ccc(Oc5ccccc5)cc4)cc3C2)s1` showed an IFI of 0.67%.

In the case of `COc1cc(NC(=O)N2CCOC(CCN3CCC4(CCc5ccccc54)CC3)(c3ccc(Cl)c(Cl)c3)C2)cc(OC)c1OC` (centres undefined), the IFI worked out at 7.53%.

As to `COc1ccc2c(NN=Cc3ccncc3)ccnc2c1`, the IFI amounted to 1.46%. The result for `Cc1ccc(-c2nc(Nc3ccncc3)c3ccccc3n2)s1` reads 0.78%.

Turning to `CCc1ccc(C2CCN(CCCCNC(=O)c3ccc(NC(=O)c4ccc(Cl)cc4)cc3)CC2)c(OCCO)c1`, the IFI stood at 5.31%. As for `CN(C)c1ccc(-c2ccc(C(=O)NC3CCN(Cc4cccc(C(F)(F)F)c4)CC3)s2)cc1`, the IFI turned out to be 11.1%. In the case of `CCc1ccc(CN(CCCOc2cccc(CC(=O)NCc3c[nH]cn3)c2)Cc2ccc(-n3ccnc3)cc2)cc1` it was 8.89%; in that of `O=C(Cc1ccccc1)NC(c1ccccc1)c1ccc2cccnc2c1O` (centres undefined), 8.62%; in that of `CC(C)c1cn2c3c(cc(C(=O)N[C@@H](Cc4ccccc4)[C@H](O)CNC4CCCCC4)cc13)N(C)S(=O)(=O)CC2`, 2.94%. Molecule `CCOC(=O)c1nc(-c2cc(Cl)nc(Cl)c2)[nH]c1NC(=S)NCc1ccc(NS(C)(=O)=O)cc1` gave an IFI of 3.88%.

For the molecule `O=C(/C=C/c1ccc(Cl)c(Cl)c1)NCC(CCCN1CCC(c2c[nH]c3ccccc23)CC1)c1ccccc1` (centres undefined), the IFI came out at 9.35%.

`COc1ccc2nccc([C@@H](O)CN3CCC(NCc4cc5cccc6c5n(c4=O)CCC6)CC3)c2c1` registered an IFI of 0.74%.

`CN1CCCC1CCNC(=O)[C@H](CC1CCCCC1)NC(=O)c1ccc(O)c(-c2ccc(Cl)c(Cl)c2)c1` (some centres undefined) gave an IFI of 5.07%.

Regarding `O=C(NCCN1CCCCC1)c1cccc(Nc2nccc(Nc3ccc(Oc4ccccc4)cc3)n2)c1`, the IFI stood at 5.07%. For the molecule `COc1ccc2ncc(F)c(CCN3CC(O)C(CNCc4nc5c(cc4Cl)OCC(=O)N5)C3)c2n1` (centres undefined), the IFI is 2.88% (2×) and 1.92%. With `OCCCCCCNc1ccnc2[nH]c3ccc(I)cc3c12`, the IFI worked out at 3.76%.

`CC(O)C1CCCCN1C(=O)c1ccc(-c2ccc(-c3nc4ccccc4[nH]3)s2)cc1` (centres undefined): the IFI was 6.73%. The result for `CC(=O)Nc1ccc(OCCN(CC(C)C)c2ccc(C(F)(F)F)c(C#N)c2)c(Cl)c1` reads 0%. On to `Cn1nccc1C(=O)NCCNCc1cccc(-c2ccc(-c3nc4cc(C(F)(F)F)ccc4[nH]3)cc2)c1`, for which the IFI was determined as 14.8%. For `Cc1cccc(NC(=S)NC2CCN(CCCCCNC(=O)/C=C/c3ccc(Cl)c(Cl)c3)CC2)c1`, the IFI stood at 5.67%. `Cc1cc(NCCC(=O)Nc2ccccc2)nc(NCCOc2ccccc2)n1`: the IFI is 4.88%. As for `Cc1cc(N2CCCC2)nc(Nc2ccc(NC(=O)COc3ccccc3)cc2)n1`, the IFI was 22.2%. Molecule `COc1ccc2c(=O)c3ccc(OC)cc3[nH]c2c1` yielded an IFI of 0.76%.
